Consider 80 molecules from ChEMBL document CHEMBL1201862, “PubChem BioAssay data set” (2004).

SMILES strings stand for the structures.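 Cultured in 96-well plates, cells were exposed to test compound for 48 hours across five concentrations. The concentration for 50% growth inhibition is given as GI50.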 Calls of active or inactive are those of the source. Cut-off read from the data, not from the text of the source: active = GI50 up to about 1.1 µM and inactive = higher.

The test system of this test is NCI-H322M. In words: NCI-60 cell line screen, 48 h.
As to `O=C(NN1C(=O)C(Cl)C1c1ccc([N+](=O)[O-])cc1)c1ccccc1O` (stereo not given), the GI50 is inactive: > 100 µM.

Consider `Cc1cc(-c2nc3ccccc3s2)ccc1N`, for which the GI50 is inactive: 48.1 µM. The same measure for `c1cncc(CNCc2cccnc2)c1`: inactive: > 100 µM.

On to `Clc1ccc(OCc2nnc(CCCCCCCCc3nnc(COc4ccc(Cl)cc4)n3Nc3ccccc3)n2Nc2ccccc2)cc1`, for which the GI50 is inactive: 24.2 µM. Turning to `O=C(COC(=O)c1cccc2c(=O)c3ccccc3[nH]c12)Nc1ccc(S(=O)(=O)Nc2ncccn2)cc1`, the GI50 is inactive: 43.7 µM. Turning to `N#Cc1c(-c2ccc([N+](=O)[O-])cc2)cc(-c2ccc(Nc3ccnc4cc(Cl)ccc34)cc2)nc1N`, the GI50 is inactive: 21.3 µM. Under `CC1(C)CC(=O)C(=CNc2nc(-c3ccc(Br)cc3)cs2)C(=O)C1` stands inactive: 35.6 µM; under `C1CN2CCNCCN(CCN1)CC2`, inactive: > 100 µM.

As for `COP(=O)(CC(=O)C1OC(OCc2ccccc2)C(OCc2ccccc2)C(OCc2ccccc2)C1OCc1ccccc1)OC` (stereo not given), the GI50 is inactive: 23.4 µM. For `N[C@H](COCc1ccccc1)c1ccccc1`, the GI50 is inactive: 31 µM. On to `C[C@]12CCC3[C@@H](CC[C@@H]4c5nonc5CC[C@]34C)C1C/C(=N/O)C2=O` (stereo not given in full), for which the GI50 was inactive: 74.3 µM.

Take `CCCCCCCCC(=O)NCCCNCCCNC(=O)CCCCCCCC`: the GI50 is inactive: 9.46 µM. As for `COc1cc(/N=N/c2cccc(S(N)(=O)=O)c2)c2ccccc2c1N`, the GI50 is inactive: 14.4 µM. Consider `CCN(CC)c1ccc2cc(-c3nnc(-c4ccccc4O)o3)c(=O)oc2c1`, for which the GI50 was inactive: 7 µM. As for `COC(=O)C(=O)c1cc2ccccc2n1S(=O)(=O)c1ccccc1`, the GI50 is inactive: > 100 µM.

On to `c1ccc2c(c1)N[C@@H]1c3[nH]c4ccccc4c3CC[C@H]21`, for which the GI50 is inactive: 14.8 µM. In the case of `CCOC(=O)C1N(S(=O)(=O)c2ccc(C)cc2)CCC12c1ccccc1NC2c1ccc(OC)c(OC)c1` (stereo not given), the GI50 is inactive: > 100 µM.

For the molecule `CC1(C)C(=O)/C=C\C(=O)C(C)(C)C(=O)/C=C\C(=O)C(C)(C)C(=O)/C=C\C(=O)C(C)(C)C(=O)/C=C\C1=O`, the GI50 was inactive: > 61.5 µM.

Turning to `C=C(C)[C@H]1CC(=O)/C(C)=C\CC/C(C)=C/CC[C@@]2(C)O[C@@H]2C1`, the GI50 is inactive: 77.1 µM. For the molecule `CCOc1ccccc1Nc1nc(C)c(C(=O)CC(=O)C(=O)Nc2ccccc2)s1`, the GI50 was inactive: > 100 µM. As to `N#Cc1c(O)c(/C=N/c2ccc(Cl)cc2)c(=O)n2c1[nH]c1ccccc12`, the GI50 is inactive: > 100 µM. Turning to `N#Cc1c2ccccc2c(Cc2ccc3c(c2)OCCOCCOCCOCCOCCO3)c2ccccc12`, the GI50 is inactive: 14.6 µM. The same measure for `O=C(COc1ccc2c(=O)cc(-c3ccccc3)oc2c1)N1CCN(c2ccccc2)CC1`: inactive: > 100 µM; for `CC1=NNC(=S)NCCCN2CCN(CCCNC(=S)NN=C(C)C=NNC(=S)NCCCN3CCN(CCCNC(=S)NN=C1)CC3)CC2`: inactive: > 100 µM. Under `O=C(O)c1ccccc1C(=O)OCC1CCCN2CCCCC12` (stereo not given) stands inactive: > 100 µM. In the case of `CN1CCCCC(C#N)(c2ccccc2)CC1` (stereo not given), the GI50 was inactive: > 100 µM. In the case of `Cc1ccc(N(C)S(=O)(=O)c2ccccc2[N+](=O)[O-])cc1`, the GI50 is inactive: > 100 µM. Regarding `CN(C)CC1(C)CC/C(=C\c2ccccc2)C1=O` (stereo not given), the GI50 was inactive: > 100 µM. For the molecule `CNC(=O)CC1NC(=O)c2csc(n2)-c2ccc(-c3nc(C4=NC(C(=O)N5CCCC5C(N)=O)CO4)cs3)nc2-c2csc(n2)-c2csc(n2)C(C(C)C)NC(=O)CNC(=O)c2csc(n2)C(C(C)C)NC(=O)c2nc1sc2C` (stereo not given), the GI50 is active: 0.0165 µM. For the molecule `CC1(C)CC(=O)C(=[N+]=[N-])C(=O)C1`, the GI50 was inactive: > 100 µM. In the case of `Cc1ccc([N+](=O)[O-])c2c(NCCCN(C)C)ccnc12`, the GI50 is inactive: > 100 µM. Regarding `O[C@H]1[C@@H]2OC[C@@H](O)[C@H](OCc3ccccc3)[C@@](COCc3ccccc3)(O2)[C@@H]1OCc1ccccc1`, the GI50 is inactive: 14 µM. For `COc1ccc(N(C)CN(C)c2nc(N(C)C)nc(N(C)C)n2)cc1`, the GI50 is inactive: > 100 µM. Regarding `O=S1(=O)c2ccccc2N2CCCc3cc(Cl)cc1c32`, the GI50 was inactive: > 100 µM. With `CCOC(=O)C(=O)N/N=C1\C(=O)Nc2ccccc21`, the GI50 was inactive: > 100 µM. Regarding `Cc1nc(-n2nc(-c3ccccc3)cc2-c2ccccc2)sc1C(=O)CC(=O)C(=O)Nc1ccc(O)cc1`, the GI50 is inactive: > 100 µM. On to `Cc1ccc(S(=O)(=O)N/N=C(\CCN2CCCC2)CC(c2ccccc2)c2c(O)c3ccccc3oc2=O)cc1` (stereo not given), for which the GI50 was inactive: > 100 µM. As for `CCN(CC)c1c(C(=O)/C=C/c2ccc(F)cc2)c(-c2ccccc2)nn(C)c1=O`, the GI50 is inactive: 5.36 µM.

With `COC(C)(C)/C=C/c1[nH]c2ccccc2c1CC(=O)NCCc1cn(C(c2ccccc2)(c2ccccc2)c2ccccc2)cn1`, the GI50 was inactive: 7.38 µM. `[O-][s+]1c2c(Cc3ccccc3)c(Cc3ccccc3)c1CCc1cccc(c1)CC2`: the GI50 is inactive: 16.3 µM.

With `CC1=C(C)C(=O)OC(C(C)(O)C2(O)CC3OC34C3CC(O)C56OC5C=CC(=O)C6(C)C3CCC42C)C1` (stereo not given), the GI50 was inactive: 6.28 µM. The same measure for `COc1ccc(CNc2ccn(C3OC(CO)C(O)C3O)c(=O)n2)cc1` (stereo not given): inactive: > 100 µM; for `CC1=C2CCCC2=C/C(=N/Nc2ccc([N+](=O)[O-])cc2[N+](=O)[O-])CC1`: inactive: > 100 µM; for `Cc1ccccc1OC(C)C(=O)NN1C(=O)CC(=O)N(c2ccccc2)C1=S` (stereo not given): inactive: 64.1 µM. As for `C[C@]12CC(c3ccccc3O1)C(C#N)C(=O)N2` (stereo not given in full), the GI50 is inactive: > 100 µM. In the case of `N#C/C1=C(\N)CCSSSC1`, the GI50 is inactive: 54.8 µM. For `CCOC(=O)c1c(NC(=O)OC)c(C#N)c2n1CCCCC2`, the GI50 was inactive: > 100 µM. With `CC(=O)NC1C(OCc2ccccc2)OC(COC(=O)CCCCCNc2ccc([N+](=O)[O-])c3[nH]c4ccc(O)cc4c(=O)c23)C(O)C1OC(C)C(=O)N[C@@H](C)C(=O)N[C@H](CCC(=O)OCc1ccccc1)C(N)=O` (stereo not given in full), the GI50 was inactive: 2.72 µM. On to `Cc1cc([N+](=O)[O-])c(C)c2c1[nH]c1ccc(/C(CCC3CCCC3)=N\N)cc12`, for which the GI50 is inactive: 17.3 µM. For the molecule `COc1cc2ccnc3c2c(c1OC)-c1coc(SC)c1-3`, the GI50 was inactive: > 100 µM. Under `CC1=C(c2ccccc2)NC(=S)C(C)C(c2ccccc2)=N1` (stereo not given) stands inactive: 49.8 µM; under `C/C(=N\O)c1cccc(Nc2c3ccccc3nc3occc23)c1`, inactive: 24.9 µM. The same measure for `C=CCC(N(C)C(=O)[C@H](Cc1ccccc1)NC(=O)OCc1ccccc1)P(=O)(Oc1ccccc1)Oc1ccccc1` (stereo not given in full): inactive: > 100 µM; for `O=C1N[C@H](C(=O)O)[C@@H](c2ccc(OCc3ccccc3)cc2)O1`: inactive: > 100 µM. As for `CC(=O)Nc1nc(C)c(S(=O)(=O)NC(=O)N2c3ccccc3CCc3ccccc32)s1`, the GI50 is inactive: > 100 µM. Turning to `O=C1c2ccccc2C(=O)N1CCCC(=O)n1cc(F)c(=O)[nH]c1=O`, the GI50 is inactive: 27.7 µM. With `COCCOc1cc(C)cc(/C=C(C)/C=C/C2=C(C)CCCC2(C)C)n1`, the GI50 is inactive: > 100 µM.

As to `C#C[C@]1(O)CC[C@H]2[C@@H]3CCC4=C/C(=N/OCCN(C)C)CC[C@]4(C)[C@H]3CC[C@@]21C`, the GI50 is inactive: 30.5 µM. With `CC(O)C1(CNc2cc(Cl)nc(N)n2)CCC1` (stereo not given), the GI50 was inactive: > 100 µM. Consider `O=c1sc2ccccc2n1CC1CS1` (stereo not given), for which the GI50 is inactive: > 100 µM. As to `CC1(c2cccs2)CC(c2cccs2)=C(C#N)C(=C(C#N)C#N)N1` (stereo not given), the GI50 was inactive: 16.2 µM. Take `Cc1cc2ccccc2n1CC(=O)NCC(C)C`: the GI50 is inactive: > 100 µM. `COC(=O)C1=C(C)NC(C)=C(C(=O)OC)C1c1ccc(NO)cc1`: the GI50 was inactive: 32 µM. Under `O=C(O)CCSC(=O)Nc1cccc2ccccc12` stands inactive: > 100 µM; under `Cc1ccc(/C=C2\N=C(N3CCCC(CO)C3)NC2=O)cc1` (stereo not given), inactive: > 100 µM. For the molecule `C1OC1CN1CCN(CC2CO2)CC1` (stereo not given), the GI50 was inactive: > 100 µM.

As for `COc1nc2nccnc2c(=O)n1C`, the GI50 was inactive: > 10 µM. Turning to `C(=C\c1ccccc1)/C=N/c1ccc2c(c1)Cc1ccccc1-2`, the GI50 is inactive: > 100 µM. The same measure for `N#Cc1c(-c2cccc(Br)c2)cc(-c2ccc(Cl)cc2)nc1N`: inactive: 31.1 µM; for `N#C/C(=C\c1ccc2[nH]ccc2c1)C(=O)NCCCCNC(=O)/C(C#N)=C/c1ccc2[nH]ccc2c1`: inactive: > 31.6 µM; for `C1CSC(Sc2nc(SC3=NCCS3)nc(SC3=NCCS3)n2)=N1`: inactive: > 100 µM. Consider `Cc1nc(Nc2ccc(Cl)cc2)sc1C(=O)NNC(=O)C(=O)NN`, for which the GI50 is inactive: 30.8 µM. `Nc1nc2c(ncn2Cc2ccccc2CCO)c(=O)[nH]1`: the GI50 was inactive: > 100 µM. `COC(=O)C1=CC2CCCC1(O)C(C(C)=O)C2` (stereo not given): the GI50 is inactive: > 100 µM. The same measure for `O=C(NN1C(=O)C(Cl)C1c1ccc(Cl)cc1)c1c(Cl)c(Cl)c(Cl)c(Cl)c1-c1nc2ccccc2[nH]1` (stereo not given): inactive: 27.2 µM; for `COC1OC2=CCC3C(=O)NC(=O)C3C2[C@H](OCc2ccccc2)C1OCc1ccccc1` (stereo not given in full): inactive: 16.6 µM. For the molecule `Cn1cnc(S[C@H]2[C@H]3C(=O)C=C4S[C@H]5C[C@]42C2=C(N5)C(=O)c4[nH]cc5c4C2=[N+]3CC5)c1C[C@H](N)C(=O)O`, the GI50 is inactive: 14 µM. The same measure for `COC(=O)c1ccc2[nH]c3c(c2c1)CC(=O)Nc1ccccc1-3`: inactive: > 100 µM.

In the case of `O=c1c(C(c2ccc([N+](=O)[O-])cc2)c2c(O)oc3ccccc3c2=O)c(O)oc2ccccc12`, the GI50 was inactive: > 100 µM.

`COc1ccc(/C=C/c2cc(OC)c(OC)c(OC)c2)cc1`: the GI50 was inactive: 24.5 µM.
